Results reported in the supplement of paper PMC4967469.
Lines with a small IC50 respond at low doses; where the fit passes the top or lowest dose, that dose stands as a limit. AUC sums up the same curve from the lowest dose to the 256-fold higher top dose; the more sensitive the line, the further below 1. For part of these data: An inferred top dose comes from the curve model; the source does not state it. For part of these data: Drugs with an entry number were screened twice under separate entries, and the two screens often disagree.

Legend:
Test in all cases: Viability of human cancer cell lines after 72 h of drug (GDSC screen)
RDEA119 = compound: COc1cc(F)c(F)c(Nc2ccc(I)cc2F)c1NS(=O)(=O)C1(C[C@H](O)CO)CC1 [RDEA119]; settings: top dose 5 µM, top dose inferred
Protocol: (§1)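 Human cancer cell lines in 384-well plates, medium with 10% serum, drug for 72 h over a 256-fold dose range (nine 2-fold or five 4-fold steps up to the top dose). Adherent lines were fixed and stained with the nucleic acid dye Syto60, suspension lines read with resazurin; signal relative to control wells, capped at 0 and 100%. One two-parameter sigmoid per drug and line, fitted in a mixed model over all curves with the slope shared within a line.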

OSU-03012 = compound: NCC(=O)Nc1ccc(-n2nc(C(F)(F)F)cc2-c2ccc3c(ccc4ccccc43)c2)cc1 [OSU-03012]; settings: top dose 16 µM; top dose inferred
Protocol: as §1

5-Fluorouracil = compound: O=c1[nH]cc(F)c(=O)[nH]1 [5-Fluorouracil]; settings: top dose 32 µM; top dose inferred
Protocol: as §1

CUDC-101 = compound: C#Cc1cccc(Nc2ncnc3cc(OC)c(OCCCCCCC(=O)NO)cc23)c1 [CUDC-101]; settings: top dose 5.12 µM; top dose inferred
Protocol: as §1

AC220 = compound: CC(C)(C)c1cc(NC(=O)Nc2ccc(-c3cn4c(n3)sc3cc(OCCN5CCOCC5)ccc34)cc2)no1 [AC220]; settings: top dose 1.024 µM; top dose inferred
Protocol: as §1

QS11 = compound: OC[C@H](Cc1ccccc1)Nc1nc(Oc2ccc3c(c2)CCC3)nc2c1ncn2Cc1ccc(-c2ccccc2)cc1 [QS11]; settings: top dose 10.24 µM
Protocol: as §1

JNK-9L = compound: Fc1cc(-c2ccnc(Nc3ccc(-n4cnc(N5CCOCC5)n4)cc3)n2)cc(N2CCOCC2)c1 [JNK-9L]; settings: top dose 5.12 µM; top dose inferred
Protocol: as §1

Row | Cell Line | AUC (RDEA119; screen: GDSC drug entry 1014) | IC50 (RDEA119; screen: GDSC drug entry 1014) | AUC (RDEA119; screen: GDSC drug entry 1526) | IC50 (RDEA119; screen: GDSC drug entry 1526) | AUC (OSU-03012) | IC50 (OSU-03012) | AUC (5-Fluorouracil) | IC50 (5-Fluorouracil) | AUC (CUDC-101) | IC50 (CUDC-101) | AUC (AC220) | IC50 (AC220) | AUC (QS11) | IC50 (QS11) | AUC (JNK-9L) | IC50 (JNK-9L)
1 | KARPAS-299 (anaplastic large cell lymphoma, suspension) | 0.972 | > 5000 nM | 0.967 | > 5000 nM | 0.759 | 4750 nM | 0.264 | 491 nM | 0.473 | 274 nM | 0.988 | > 1020 nM | 0.981 | > 10200 nM | 0.574 | 490 nM
2 | OSC-19 (head and neck, adherent) | 0.736 | 1520 nM | 0.86 | 4490 nM | 0.704 | 3870 nM | 0.965 | > 32000 nM | 0.455 | 240 nM | 0.985 | > 1020 nM | 0.983 | > 10200 nM | 0.534 | 398 nM
3 | L-540 (Hodgkin lymphoma, suspension) | 0.986 | > 5000 nM | 0.982 | > 5000 nM | 0.779 | 5810 nM | 0.987 | > 32000 nM | 0.979 | > 5120 nM | 0.99 | > 1020 nM | 0.929 | > 10200 nM | 0.544 | 415 nM
4 | TUR (B-cell lymphoma, suspension) | 0.91 | > 5000 nM | 0.948 | > 5000 nM | 0.777 | 5920 nM | 0.426 | 1280 nM | 0.433 | 213 nM | 0.975 | > 1020 nM | 0.919 | > 10200 nM | 0.509 | 338 nM
5 | Mewo (melanoma, adherent) |  |  | 0.763 | 2140 nM | 0.845 | 15100 nM | 0.955 | > 32000 nM | 0.653 | 931 nM | 0.981 | > 1020 nM | 0.983 | > 10200 nM | 0.656 | 949 nM
6 | H2373 (mesothelioma, adherent) | 0.774 | 2490 nM | 0.868 | > 5000 nM | 0.865 | > 16000 nM | 0.962 | > 32000 nM | 0.587 | 589 nM | 0.982 | > 1020 nM | 0.98 | > 10200 nM | 0.621 | 753 nM
7 | DB (B-cell lymphoma, suspension) | 0.979 | > 5000 nM | 0.974 | > 5000 nM | 0.683 | 3500 nM | 0.833 | 24400 nM | 0.247 | 53.9 nM | 0.981 | > 1020 nM | 0.863 | > 10200 nM | 0.566 | 495 nM
8 | Saos-2 (osteosarcoma, adherent) | 0.932 | > 5000 nM | 0.968 | > 5000 nM | 0.817 | 14400 nM | 0.981 | > 32000 nM | 0.974 | > 5120 nM | 0.981 | > 1020 nM | 0.977 | > 10200 nM | 0.73 | 1940 nM
